Sequences and labels used below:
B1: CPEB3 Ribozyme (parent)
chain: UAACAGGGGGCCACAGCAGAAGCGUUCACGUCGCAGCCCCUGUCAGAUUCUGGUGAAUCUGCGAAUUCUGCUGUAUAUCUC

Read counts are not given, so values of variants with three or more changes are uncertain.

Self-cleavage data for 167 variants are collected here from the RNAGym collection of RNA variant scans (doi:10.1093/nar/gkz1192).

The data set covers variants of B1. The experiment in a line: self-cleavage, relative activity (ratio to wild type); higher = more cleavage; in vitro, sequencing. The procedure, abridged: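 For each CPEB3 ribozyme variant, relative activity is its cleaved/total read fraction divided by the unmutated ribozyme's. Barcoded error-prone PCR libraries were transcribed by T7 RNA polymerase (5 hours, 37°C) and held in DNase I for 15 min before an EDTA stop, with cleavage occurring throughout. Template-switching reverse transcription and Illumina sequencing were used to read the RNAs. A 5-read minimum applied, and results are the mean of three batches.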
With G7U U41C A47U, the self-cleavage is 0.15. Turning to G6A U31A A45U U67G, the self-cleavage was determined as 0.05. Consider G7U C27U U69C, for which the self-cleavage was found to be 0.19. In the case of G6A G7U A13G A15U U49C, the self-cleavage was found to be 0.31.

G7U A18U G33U A45G G53C G73A A75U: the self-cleavage came out at 0.02. The value for G6A U31C U43G U49C U51A U58G U72C was 0.04; that for G6U A15G A20G was 0.11. For G6U A18G U43A U78C the value was 0.41; for G7A C12G A15G C23G A64G, 0.16. For G7C C34A A35C U51G A56C C62U the value was 0.09; for G7C A13C A15G U25A U49C U60C U67C, 0. G7A C23U U26A C34U U51C U74A: the self-cleavage was determined as 0.17.

As to G8A A18U A21C U51C U60C U66G U80C, the self-cleavage was determined as 0.04. Regarding G8A A13G U60A, the self-cleavage stood at 0.08. Turning to G7A A18G U72C, the self-cleavage was 0.08. The value for G7U U41A A45G A64U was 0.14.

On to G7U U41A U66C U78A, for which the self-cleavage was 0.34. In the case of G6A U31A U43A A57G U58C A75G, the self-cleavage came out at 0.06. For G6U G16A U72A, the self-cleavage is 0.34. For G7A A20G A28G A35G A64G U78C the value was 0.06; for G6A U49C A57G, 0.16. For G7U A35U U41C A56G U60G the value was 0.07. The value for G8A A18G U26A U51A A56G U67C U78C was 0.06; that for G6U G24A A57G U72C U80C was 0.25. As for G7C A35G U72A, the self-cleavage came to 0.07. The value for G7A U26A A45G G52A A56U U80A was 0.04; that for G6U A47G U49A was 0.09; that for G6U A15G A64U U67G was 0.34. The value for G6U G8U A28U U48A was 0.08; that for G7A U67C A77G U78A was 0.16; that for G7U C32U A56U A57G was 0.09. Regarding G8A A13U A15G A20C A35G A57G U60A, the self-cleavage was 0.05. For G6C A13G U25A U41C A56U U80C the value was 0.04. The value for G6U G24U U25G was 0.33. In the case of G6A U41A U43G U51C, the self-cleavage came out at 0.22. For G6A C23U U49A U78C the value was 0.07; for G7A A20U A35G, 0.08. With G7A C34U U48C A57U A64U, the self-cleavage was 0.21.

On to G6A C27G G61A, for which the self-cleavage amounted to 0.16. For G7U G10C A15U U72C U80C the value was 0.06; for G7A A13U U76C U80A, 0.05; for G7U U58C A64U, 0.11. Take G6C U54C U60C: the self-cleavage was found to be 0.32.

Take G6C A13U A28U: the self-cleavage was 0.22. As to G7C U51C U76C, the self-cleavage is 0.06. Take G7U A21G U51C U72C: the self-cleavage turned out to be 0.05.

For G7U G8A G55U U72A, the self-cleavage is 0.05. With G8A A15U A20G G55U G73A, the self-cleavage came out at 0.11. The value for G8A A15U A35G was 0.52; that for G8A A18G G30A G55U U60C was 0.05.

For the variant G6U G9A A18U G46A U60C C62U U76C, the self-cleavage worked out at 0.04.

Take G7A A13U A28G U78C: the self-cleavage was 0.06.

Take G7A A20G A35U U41C U60C: the self-cleavage came out at 0.08. For G6A U26C A56U, the self-cleavage was determined as 0.25.

For the variant G6A C12U U72C, the self-cleavage turned out to be 0.72. For the variant G7U A20U U41C A56G G61U A77G, the self-cleavage stood at 0.06. The value for G6A U43A A75U was 0.14; that for G6A G63A U72A was 0.44.

Consider G7C G8A U26C A45G U58C U69C, for which the self-cleavage was 0.05. With G6A G24A U25C C44U A47G U54C U72A, the self-cleavage was 0.15. Turning to G6A U25C A28G G52A U60A U72C U78C, the self-cleavage turned out to be 0.17. With G6A G8A A28G C40U U54C U67C, the self-cleavage came out at 0.11. Regarding G7U A13G A20G U41G U51A, the self-cleavage was 0.08. For G7U G19U A28U the value was 0.2; for G7C A18C A45G U54A A56G U58C U69C, 0.11; for G6A U48A C59U, 0.27. For G7C C39U A47U U80A the value was 0.07; for G6C A18G U48C A65G, 0.2. The value for G6U A20G U26C A35G U51C U76C was 0.07. With G7A A13G A64G, the self-cleavage came to 0.16. For the variant G8A A18G U25C U58C, the self-cleavage was 0.1. Turning to G7U A15G U26A U48C A57G C62U A64G, the self-cleavage came to 0.03.

G8A A13G U26C A28C U51A A65G: the self-cleavage worked out at 0.06. For G7C A35C C62U the value was 0.14; for G8A A15G A18U A57G, 0.38.

For G6A U51A G61U C62U U67C U80C, the self-cleavage came out at 0.23. As for G7U A45G A56G, the self-cleavage came out at 0.15. The value for G6A U26G G53A U72A was 0.06; that for G8A A18G A45G was 0.48; that for G7U U43C U48C A57G was 0.08. Turning to G7U A18G U25C U43C G53U, the self-cleavage is 0. For G7C A21G U25C U60C the value was 0.21; for G6U C11U U74C, 0.1; for G7U G33A A35C U54C A64U U69A, 0.04.

Turning to G7U G19A U25C U43C A64G, the self-cleavage amounted to 0.11. The value for G6U U43C G73C was 0.27; that for G7C C14U C23G U26A U31C C44G was 0.03; that for G6U U60C U72A was 0.14. For G6A U26C A35G U48C the value was 0.18; for G7A A20G C79A, 0.1.

On to G6A G8U U72A U80C, for which the self-cleavage turned out to be 0.23. On to G6U U26C U49C U67A, for which the self-cleavage was found to be 0.06. For G7A U51A G70U the value was 0.16; for G7U A13U U48A A57G U76C U80C, 0.06; for G6A U41A U48C, 0.32. For G7U A13G C14U U49C U58C U78A, the self-cleavage worked out at 0.12. Take G7A A21G U25C U26A A56G A64G U69A: the self-cleavage was found to be 0.03.

For the variant G7A U25C U43C U60C, the self-cleavage came to 0.07. For G7A A20G U25C A28U U69C, the self-cleavage was determined as 0.07. Turning to G6U A18U U54C A75G U78C, the self-cleavage amounted to 0.05. For G7A G70A A75G U76G the value was 0.13; for G7U U25C U31C U43A, 0.21; for G7C A13G U72A, 0.31.

For the variant G7U U31A A47G A56U, the self-cleavage amounted to 0.13. The value for G7U G36A U60C G61A U66C was 0.04. The value for G8A A13U G24C G30A U54C U74C A75G was 0.05; that for G7A G8U A57G C62U U66C U67A was 0.03.

Turning to G6A U31A U51A A56U, the self-cleavage was 0.32. The value for G7U A35G U43C U51A A57U was 0.13; that for G7A A18G G24A U48C U49C U69C was 0.06; that for G7U G52C C59A U69C was 0.04. Regarding G7A A35G A45U U54C U60G, the self-cleavage stood at 0.3.

On to G7U A45C A75G, for which the self-cleavage came to 0.23. For G8A A15G A18G U26A U51A U67G U78C the value was 0.13. Regarding G8A A20G A77U U80C, the self-cleavage is 0.09. The value for G7A A15G A18G G24U U25C U26C was 0.34; that for G7U U41C A65G was 0.16.

Regarding G7U A35C U41C A45G U58C U72A, the self-cleavage was determined as 0.06.

Take G7C U26C C39A U43C A45U U54C: the self-cleavage amounted to 0.04.

In the case of G6C A13G A15G U25A U41C U66C U76A, the self-cleavage is 0.04. The value for G7A A13U A15U U49C A57C was 0.07. For G6U A13U U60C G70U the value was 0.18; for G7A U25A U31C G52A, 0.05; for G6A U26C U58C U80C, 0.26.

G7U A35G G46A U60G U80A: the self-cleavage is 0.18. Turning to G7U C23G A45G C62U A64U, the self-cleavage was 0.03. The value for G6U C12U A18G U25C U54C U69A was 0.05; that for G7U C23G U67C was 0.14. For G8A A13G U76C the value was 0.36. Consider G7U G9A A35G C71U, for which the self-cleavage was found to be 0.05. For G6A G36U A45G A56G U60C the value was 0.09. For G7A A28G G61C the value was 0.18; for G6U U25C A45G U66A A75U, 0.06; for G6A U76C U80A, 0.27. Turning to G7C U51C U72C, the self-cleavage amounted to 0.07. With G8A A13G A21G A35G U51C A57G U76C, the self-cleavage is 0.

Turning to G6U A15U U80C, the self-cleavage is 0.33. For G6A G24A U54C U66A the value was 0.11; for G7A U43C U49C A64G, 0.33; for G6U U43C A57G, 0.08.

With G7U A20C U41C, the self-cleavage came to 0.21. Take G6A G16C A35C U49C: the self-cleavage turned out to be 0.19. For G6C G8U A35U U58C U66A U74C the value was 0.25. For G6C U26G U72A the value was 0.07; for G7U C14A C38U U67C, 0.11; for G7U C40A U78C, 0.16.

With G6A U31G G55A A56U A77U, the self-cleavage is 0.06. For G7A U26A U43A U69A the value was 0.24. For the variant G8A A18U G19U A20U C23A U60A, the self-cleavage worked out at 0.06. For the variant G7A A15G U25C A47G U54A, the self-cleavage turned out to be 0.06.

Consider G6A U26A A45G, for which the self-cleavage was 0.11.

Regarding G6A G30A G42A, the self-cleavage is 0.06.

G7A A21G U31A A47G: the self-cleavage came to 0.15. The value for G6U A13U C59A U67A U74C was 0.05.

In the case of G7A A18G A35U G36A A75U, the self-cleavage worked out at 0.18.

As to G7U A20G A21G U26C A56U, the self-cleavage stood at 0.16. The value for G6A U66C U78C was 0.14; that for G6U A28G U41C A45G A57G U67C U80C was 0.11. With G7U U26C U80C, the self-cleavage was found to be 0.22.

In the case of G6A U31C G33U A35U U49C U54C A57U, the self-cleavage stood at 0.05. For G7U C11A U25C U41A U58C U69A the value was 0.05; for G7A G55C U67C, 0.06; for G6A G22U A35U U48C U72A, 0.05.

Regarding G7A G73U U76C, the self-cleavage came out at 0.42. G6U A15U C29U A45G U58A: the self-cleavage amounted to 0.13.

Regarding G6A U26A A57G U69G, the self-cleavage is 0.3. In the case of G7U A15G G16A A20C U26C, the self-cleavage was 0.05.
